Some of the results follow. Cleavage of a single-stranded DNA pool by Rep nickase domains was read by sequencing (1 h at 37 °C, 3 µM enzyme); the outer parts of the 90-letter strands are left off. Uncut reads are compared with the no-enzyme pool on a log2 scale; more negative means more cut, near 0 not cut, and no call is made. The scaling is to total reads; where an enzyme cuts many sequences, the uncut ones exceed 0.
The sequences below were run on T1, Rep nickase domain of tomato golden mosaic virus (assay: uncleaved DNA left, log2 of reads against the no-enzyme library (log2 ratio); higher = less cleavage (more negative = more Rep cleavage of the k-mer); sequences stand for … in CTCGTCCG…ACCGGAGA).
T1 sequence (residues 1-124, tag not shown): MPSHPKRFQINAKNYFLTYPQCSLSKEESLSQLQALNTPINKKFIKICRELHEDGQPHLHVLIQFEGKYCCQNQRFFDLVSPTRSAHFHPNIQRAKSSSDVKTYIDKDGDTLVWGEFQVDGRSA
Procedure: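 A pool of 90-nt single-stranded DNAs with seven random bases just before the constant AC of the nick site (name = the seven bases) was cut by 3 µM recombinant His6-SUMO-tagged Rep nickase domain (300 nM DNA, 50 mM HEPES pH 8.0, 50 mM NaCl, 1 mM MnCl2, 1 h, 37 °C, three replicates). Uncut DNA was amplified and sequenced.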

Sequence | uncleaved DNA left (log2)
CAAGCCA | 0.0102
CCTCCTT | -0.193
ATAGTGT | 0.143
TTACCGA | 0.00664
CGCTCTC | -0.181
ACAGCTG | 0.25
ATTATAG | 0.0445
ACCCCAT | -0.175
GTTAACG | 0.0952
CCTTTGA | -0.217
TCCTAGA | -0.0493
GTTGATC | -0.0848
CGTTATT | -0.158
TCACGGT | 0.0495
AATATGC | -0.0246
ACTCCCT | 0.0852
TCAGCAC | -0.0085
TCAGGCA | 0.0456
GGTGGCT | 0.0623
ACTTACG | -0.114

Sequence | uncleaved DNA left (log2)
AAGTTTT | -0.0592
TGATAGG | 0.185
CCCATTG | -0.121
TCTTAAT | 0.0987
ACCTGAA | 0.0642
CGAAACC | -0.134
CCTCAGA | 0.165
ATAGCAG | -0.0245
GCGGCGA | 0.0326
TGATCGC | 0.0832
AGGATAG | 0.11
TGGATAT | 0.0386
GGAAAGC | 0.0456
CTCCATC | -0.116
TCGATCC | -0.085
TTAAAGA | 0.0535
GACTGGA | -0.079
TATGCAG | -0.0249
TTCACAC | -0.00699
TGCACTA | 0.0899

Source: the supplement of paper PMC7826260
